Data reported in the supplement of paper PMC10369915.
The other results are listed elsewhere or left out. No stated cut-off is given here; in the data, active = 3.2 or more and inactive = the rest. Only a few entries rise above the background.

What follows are binders tested against SHP2 C-SH2 domain E139D (assay: enrichment score (SH2-bound / input frequency) (ratio); bacterial display of known human phosphotyrosine sites (pTyr-Var adds point mutants) read by sequencing; higher = stronger binding; tyrosines were phosphorylated by kinases first). Settings: peptide library: Human pTyr.
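Further: displayed peptides selected on beads carrying the immobilized SH2 domain, with library peptides lacking any tyrosine serving as negative controls.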

Enrichment score, inactive:
KGVGRDKYEPAAVSE [AT1A1_HUMAN_10] 0.785
TLMEKDSYPRFLKSP [RGS16_HUMAN_168] 0.568
ITDEQRQYAVNQFKT [REPS1_HUMAN_288_YA] 0.697
EAESEGGYITANTDT [RMD2_HUMAN_152] 0.981
KLQDEANYHLYGSRM [RIPK1_HUMAN_384] 0.979
MLRIVEPYIAWGYPN [RL7_HUMAN_139] 1.56
DRRFRGRYRSPYSGP [RBM39_HUMAN_95] 0.743
KTERSKSYDEGLDDY [RHG21_HUMAN_881] 1.17
DVYEEDSYVKRSQGR [RET_HUMAN_905] 0.764
KNREGLNYMVLATEC [ROS1_HUMAN_2274] 1.47
KDAFQNAYLELGGLG [AT1A1_HUMAN_542] 0.607
EVYAADYYKLLGNSL [ROR2_HUMAN_646] 0.906
VPAGSDEYEDECPHL [RIOK2_HUMAN_445] 1.1
SRNMGGPYGGGNAGP [ROA2_HUMAN_331_YA] 0.606
GGNARDNYDNGGGGG [RBM3_HUMAN_155_YA] 0.747
KAENYELYSVELGPG [ATP4A_HUMAN_10] 0.933
SRKAQDCYFMKLHHC [RIPK2_HUMAN_381] 1.84
DPKSAEAYVLNIVRF [AT1B1_HUMAN_101_YA] 1.32

Each binder was assayed against SHP2 C-SH2 domain wild-type in the same assay as above. Settings: peptide library: Human pTyr.

Enrichment score, inactive:
KGVGRDKYEPAAVSE [AT1A1_HUMAN_10] 0.922
TLMEKDSYPRFLKSP [RGS16_HUMAN_168] 0.749
ITDEQRQYAVNQFKT [REPS1_HUMAN_288_YA] 0.791
EAESEGGYITANTDT [RMD2_HUMAN_152] 0.689
KLQDEANYHLYGSRM [RIPK1_HUMAN_384] 0.709
MLRIVEPYIAWGYPN [RL7_HUMAN_139] 1.45
DRRFRGRYRSPYSGP [RBM39_HUMAN_95] 0.459
KTERSKSYDEGLDDY [RHG21_HUMAN_881] 0.798
DVYEEDSYVKRSQGR [RET_HUMAN_905] 0.59
KNREGLNYMVLATEC [ROS1_HUMAN_2274] 1.04
KDAFQNAYLELGGLG [AT1A1_HUMAN_542] 0.556
EVYAADYYKLLGNSL [ROR2_HUMAN_646] 0.653
VPAGSDEYEDECPHL [RIOK2_HUMAN_445] 0.771
SRNMGGPYGGGNAGP [ROA2_HUMAN_331_YA] 0.369
GGNARDNYDNGGGGG [RBM3_HUMAN_155_YA] 0.614
KAENYELYSVELGPG [ATP4A_HUMAN_10] 0.751
SRKAQDCYFMKLHHC [RIPK2_HUMAN_381] 1.94
DPKSAEAYVLNIVRF [AT1B1_HUMAN_101_YA] 1.14

These binders were tested against SHP2 N-SH2 domain L43F in the same assay as above. Settings: peptide library: Human pTyr.

Enrichment score, inactive:
KGVGRDKYEPAAVSE [AT1A1_HUMAN_10] 0.869
TLMEKDSYPRFLKSP [RGS16_HUMAN_168] 0.726
ITDEQRQYAVNQFKT [REPS1_HUMAN_288_YA] 0.531
EAESEGGYITANTDT [RMD2_HUMAN_152] 1.07
KLQDEANYHLYGSRM [RIPK1_HUMAN_384] 0.884
MLRIVEPYIAWGYPN [RL7_HUMAN_139] 1.34
DRRFRGRYRSPYSGP [RBM39_HUMAN_95] 0.703
KTERSKSYDEGLDDY [RHG21_HUMAN_881] 0.886
DVYEEDSYVKRSQGR [RET_HUMAN_905] 0.698
KNREGLNYMVLATEC [ROS1_HUMAN_2274] 1.32
KDAFQNAYLELGGLG [AT1A1_HUMAN_542] 0.651
EVYAADYYKLLGNSL [ROR2_HUMAN_646] 0.725
VPAGSDEYEDECPHL [RIOK2_HUMAN_445] 1
SRNMGGPYGGGNAGP [ROA2_HUMAN_331_YA] 0.531
GGNARDNYDNGGGGG [RBM3_HUMAN_155_YA] 0.662
KAENYELYSVELGPG [ATP4A_HUMAN_10] 0.651
SRKAQDCYFMKLHHC [RIPK2_HUMAN_381] 1.74
DPKSAEAYVLNIVRF [AT1B1_HUMAN_101_YA] 1.26

Each binder was assayed against SHP2 N-SH2 domain T42A in the same assay as above. Settings: peptide library: Human pTyr.

Enrichment score, inactive:
KGVGRDKYEPAAVSE [AT1A1_HUMAN_10] 0.806
TLMEKDSYPRFLKSP [RGS16_HUMAN_168] 0.796
ITDEQRQYAVNQFKT [REPS1_HUMAN_288_YA] 0.533
EAESEGGYITANTDT [RMD2_HUMAN_152] 0.791
KLQDEANYHLYGSRM [RIPK1_HUMAN_384] 0.663
MLRIVEPYIAWGYPN [RL7_HUMAN_139] 1.48
DRRFRGRYRSPYSGP [RBM39_HUMAN_95] 0.599
KTERSKSYDEGLDDY [RHG21_HUMAN_881] 0.935
DVYEEDSYVKRSQGR [RET_HUMAN_905] 0.657
KNREGLNYMVLATEC [ROS1_HUMAN_2274] 1.15
KDAFQNAYLELGGLG [AT1A1_HUMAN_542] 0.701
EVYAADYYKLLGNSL [ROR2_HUMAN_646] 0.791
VPAGSDEYEDECPHL [RIOK2_HUMAN_445] 0.988
SRNMGGPYGGGNAGP [ROA2_HUMAN_331_YA] 0.381
GGNARDNYDNGGGGG [RBM3_HUMAN_155_YA] 0.569
KAENYELYSVELGPG [ATP4A_HUMAN_10] 0.606
SRKAQDCYFMKLHHC [RIPK2_HUMAN_381] 1.92
DPKSAEAYVLNIVRF [AT1B1_HUMAN_101_YA] 1.4

The binders below were run against SHP2 N-SH2 domain T52S in the same assay as above. Settings: peptide library: Human pTyr.

Enrichment score, inactive:
KGVGRDKYEPAAVSE [AT1A1_HUMAN_10] 0.853
TLMEKDSYPRFLKSP [RGS16_HUMAN_168] 0.698
ITDEQRQYAVNQFKT [REPS1_HUMAN_288_YA] 0.694
EAESEGGYITANTDT [RMD2_HUMAN_152] 1.77
KLQDEANYHLYGSRM [RIPK1_HUMAN_384] 0.746
MLRIVEPYIAWGYPN [RL7_HUMAN_139] 1.62
DRRFRGRYRSPYSGP [RBM39_HUMAN_95] 0.662
KTERSKSYDEGLDDY [RHG21_HUMAN_881] 1.29
DVYEEDSYVKRSQGR [RET_HUMAN_905] 0.707
KNREGLNYMVLATEC [ROS1_HUMAN_2274] 1.2
KDAFQNAYLELGGLG [AT1A1_HUMAN_542] 0.638
EVYAADYYKLLGNSL [ROR2_HUMAN_646] 0.882
VPAGSDEYEDECPHL [RIOK2_HUMAN_445] 1.02
SRNMGGPYGGGNAGP [ROA2_HUMAN_331_YA] 0.533
GGNARDNYDNGGGGG [RBM3_HUMAN_155_YA] 0.671
KAENYELYSVELGPG [ATP4A_HUMAN_10] 0.794
SRKAQDCYFMKLHHC [RIPK2_HUMAN_381] 2.1
DPKSAEAYVLNIVRF [AT1B1_HUMAN_101_YA] 1.39

These binders were tested against SHP2 N-SH2 domain wild-type in the same assay as above. Settings: peptide library: Human pTyr.

Enrichment score, inactive:
KGVGRDKYEPAAVSE [AT1A1_HUMAN_10] 0.973
TLMEKDSYPRFLKSP [RGS16_HUMAN_168] 0.9
ITDEQRQYAVNQFKT [REPS1_HUMAN_288_YA] 0.703
EAESEGGYITANTDT [RMD2_HUMAN_152] 1.2
KLQDEANYHLYGSRM [RIPK1_HUMAN_384] 0.875
MLRIVEPYIAWGYPN [RL7_HUMAN_139] 2.29
DRRFRGRYRSPYSGP [RBM39_HUMAN_95] 0.652
KTERSKSYDEGLDDY [RHG21_HUMAN_881] 1.28
DVYEEDSYVKRSQGR [RET_HUMAN_905] 0.734
KNREGLNYMVLATEC [ROS1_HUMAN_2274] 1.32
KDAFQNAYLELGGLG [AT1A1_HUMAN_542] 0.728
EVYAADYYKLLGNSL [ROR2_HUMAN_646] 0.842
VPAGSDEYEDECPHL [RIOK2_HUMAN_445] 1.06
SRNMGGPYGGGNAGP [ROA2_HUMAN_331_YA] 0.386
GGNARDNYDNGGGGG [RBM3_HUMAN_155_YA] 0.625
KAENYELYSVELGPG [ATP4A_HUMAN_10] 1.01
SRKAQDCYFMKLHHC [RIPK2_HUMAN_381] 2.86
DPKSAEAYVLNIVRF [AT1B1_HUMAN_101_YA] 1.45
